# The other results are listed elsewhere or left out.
# Test system: T1, C. trachomatis L2/434/Bu expressing GFP (CTL2-GFP)
# T1 construct: L2/434/Bu GFP intracellular growth in HeLa cells
# Design: species or system HeLa; C. trachomatis total inclusion area by high-content imaging, normalised to DMSO
# Conditions: total inclusion area; 28.5 h, 10 µM; inhibitor
# Summary of the method: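 Post-fluorescence-read fixation, DNA staining with Hoechst and high-content imaging; GFP inclusion area and number per well, and nuclei counts, used as proxies for bacterial growth and host viability.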
row,SMILES,% of control remaining
1,C=C(C)Cn1c(SCCC(=O)OC)nc2sc3c(c2c1=O)CC(C)(C)OC3 [CBK026634],25.3018
2,COc1ccc(C(=O)Nc2ccccc2N2CCNCC2)cc1 [CBK029447T],79.763
3,c1ccc(Cn2cc(-c3cncn3CCCN3CCCCC3)cn2)cc1 [CBK281491],63.3733
4,Cn1c(SCC(=O)NC(c2ccccc2)c2ccccc2)nnc1-c1ccncc1 [CBK266622],120.418
5,COc1cccc(OC)c1OCCN1CCNCC1 [CBK265089G],115.815
6,O=C(Nc1ccc(-n2cc(Cl)cn2)cc1)c1ccncc1 [CBK270249],113.618
7,CCNC(=O)C(C)NC(=O)c1cnn(-c2ccc(Br)cc2)c1C (stereo not drawn) [CBK305021],101.158
8,OCCn1ncc2c(NCc3ccc(-n4cccn4)nc3)ncnc21 [CBK306326],20.2827
9,Cc1cccc(CN2CCC(NC(=O)NCc3ccn(C)c3)CC2)c1 [CBK305259],80.6062
10,COc1ccc(OCC(=O)N/N=C/c2ccc([N+](=O)[O-])s2)c(I)c1 [CBK261374],77.1207
11,Cc1ccc(OCC(O)CN2CCC(C(N)=O)CC2)cc1C (stereo not drawn) [CBK057100],60.2969
12,O=C1NCC(C2CCN(Cc3ccccc3)CC2)Oc2ccccc21 (stereo not drawn) [CBK282314],106.297
13,O=C(NC(=S)Nc1ccccc1)c1cncc(Br)c1 [CBK092040],74.8017
14,CC(C)CSc1nnc(-c2ccccc2F)n1CC(C)C [CBK200091],100.536
15,COCCCN(Cc1ccccn1)Cc1cccc(F)c1F [CBK282947],104.351
16,CC(C)Nc1nccnc1Sc1cccc(C(=O)O)c1 [CBK093581],84.184
17,COc1ccc(NC(=O)c2cnn3c2NC(C(=O)O)=CC3c2ccccc2)cc1 (stereo not drawn) [CBK287240],91.0311
18,Cn1cnnc1SC1c2cccc3cccc(c23)C1NS(=O)(=O)c1ccc(Cl)cc1 (stereo not drawn) [CBK264707],101.398
19,Cc1nc2ncccn2c1-c1csc(Nc2ccc(S(N)(=O)=O)cc2)n1 [CBK263294B],38.9101
20,COc1ccc2cc(/C=N/NC(=O)CN3CCCCC3)c(Cl)nc2c1 [CBK018181],95.8231
21,Cc1ccccc1C(c1cnccn1)N(C)C(=O)C1CCN(C(=O)c2ccccc2)CC1 (stereo not drawn) [CBK060208],101.569
22,CCCCOc1ccc(-c2nc(SCC(=O)O)c3c4c(sc3n2)COC(C)(C)C4)cc1 [CBK267716],116.874
23,O=C(COc1cccc(Cl)c1)N/N=C\c1ccc(C(=O)O)cc1 [CBK262293],91.8936
24,CNC(=O)C(NC(=S)NC(=O)c1ccc(F)cc1)C(C)(C)C (stereo not drawn) [CBK021945],85.1395
25,CCNC(=O)C1CCN(C(=O)c2coc(COc3cccc(F)c3)n2)C1 (stereo not drawn) [CBK307466],55.1118
26,CCOC(=O)c1[nH]c2ccccc2c1NS(=O)(=O)c1cccc(Cl)c1C [CBK047423],78.1879

row,SMILES,% of control remaining
1,COc1cccc2cc(C(=O)C3=C(O)C(=O)N(CCCN4CCOCC4)C3c3ccc(C)cc3)oc12 (stereo not drawn) [CBK266420],92.6371
2,O=C(C1CC1)N1CCC2(CC1)Nc1ccccc1-n1cccc12 [CBK284011],92.134
3,Cc1csc2ncc(C(=O)Nc3ccc(F)c(Cl)c3)c(=O)n12 [CBK287460],76.0712
4,Cc1nc2ccc(C(=O)N3CCN(C(=O)c4ccc(Cl)cc4)CC3)cc2nc1C [CBK296647],107.706
5,COc1ccccc1C(NC(=O)C1CCN(CCn2cnc3c2c(=O)n(C)c(=O)n3C)CC1)c1ccccn1 (stereo not drawn) [CBK147939],99.6024
6,CCOc1cc(CNCc2ccc(C(=O)O)cc2)ccc1OC [CBK270029C],92.7918
7,Cc1nc(NC(=O)c2c(F)cccc2F)sc1C [CBK300495],101.649
8,COc1cccc2c1ncc1c(=O)nc(N)sc12 [CBK291241],106.749
9,C=CCC1(CC=C)CCN1C(=O)Cc1c(C)nc(SC)[nH]c1=O [CBK282661],122.537
10,Cc1nc(N/N=C/c2ccc3c(c2)OCO3)sc1C [CBK263098],87.5603
11,O=C(CSc1ncn(-c2ccccc2)n1)Nc1cc(Cl)cc(Cl)c1 [CBK268261],101.497
12,O=C(Cc1ccc([N+](=O)[O-])cc1)Nc1ccc(O)cc1C(=O)O [CBK265977],126.849
13,O=S(=O)(NC1c2cccc3cccc(c23)C1Sc1ccccn1)c1ccc(Cl)cc1 (stereo not drawn) [CBK264073],110.786
14,O=C(c1cnn(-c2ccc(Cl)cc2)c1C(F)(F)F)N1CCN(c2ncccn2)CC1 [CBK107448],117.77
15,O=C(O)CCC(=O)NCCc1ccc(Cl)cc1 [CBK287165],103.322
16,O=C(c1ccccc1F)N1CC2CCCC(C1)C2N1CCOCC1 (stereo not drawn) [CBK285262],87.2715
17,Cc1cn([C@H]2C[C@@H](O)[C@@H](CO)O2)c(=O)n(CCC#N)c1=O [CBK201322],73.6167
18,Cc1cc(CN2CC3CCCN3C[C@@H]2C)c(C)n1CC1CCCO1 (stereo partly drawn) [CBK285419],101.927
19,CCC(Sc1nccn1C)C(=O)Nc1ccc(S(N)(=O)=O)cc1 (stereo not drawn) [CBK058413],90.8686
20,COc1c(Br)cc2c(cc(C)n2-c2ccccc2)c1OCC(O)CNC(C)C (stereo not drawn) [CBK263516],2.0554
21,O=C(Nc1ccc(N2CCOCC2)c2nonc12)c1cc(-c2cccnc2)nc2ccc(Cl)cc12 [CBK267724],95.8808
22,Fc1ccccc1-c1nc2cnccn2c1NCc1cccs1 [CBK282332],108.479
23,COc1ccc(-c2nc3cc(NC(=O)C(c4ccccc4)c4ccccc4)ccc3o2)cc1 [CBK264980],109.138
24,Cc1ccc(C)c(NC(=O)Cc2nc(CN3CCNC(=O)C3)cs2)c1 [CBK305071],127.705
25,CC1=NN(C(=O)C2CC2)C(=O)C1Cc1ccc(F)cc1 (stereo not drawn) [CBK083561],97.1773

# From paper PMC12040169 (PLOS Biology, 2025)
